Experimental data from PubChem BioAssay AID1508624 (National Center for Advancing Translational Sciences (NCATS), 2021).
In all, about 48,000 compounds went through this assay and about 120 (0.25%) were called active. About 4% were inconclusive and are not listed. Calls come from the whole dose curve; as a rule, active = well fitted activation curve with a large enough effect; inconclusive = small, poorly fitted or top-dose-only effect, or another doubt; inactive = no such curve, though single readings can be large or run the other way. This is one part of the list.

Assay: Primary qHTS for Identification of Small Molecule Activators of Huntingtin-Antisense Promoter Activity; note: nearly all actives have a fitted effect of over 55% in size
Settings: HEK293 HTT-AS promoter firefly luciferase reporter, 24 h; series mostly up to 57.5 µM; activity change, positive = activation: at the top concentration
Outline: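 Firefly luciferase readout (Dual-Glo, 10 min RT) after 24 h, 37 °C compound exposure (final up to 57.5 uM) of HEK293 reporter cells cultured 24 h beforehand; PTC124 at 50 uM final as control inhibitor; activity scaled vehicle 0%, zero RLU -100%.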

Activity change, positive = activation, inactive:
Cc1cc(=O)oc2cc(O)ccc12, COc1ccc(N2CCN(C(=O)C(CC(C)C)NS(=O)(=O)c3ccc4nc(C)sc4c3)CC2)cc1 (stereo not given) -22.9%, O=C(NC1CCCCC1)c1ccc2c(c1)N(Cc1cccc(Cl)c1)C(=O)c1ccccc1S2(=O)=O -7.14%, Cc1ccc(CNc2cc(C)nc3nc(-c4ccc(C)cc4)nn23)cc1 27.6%, COC(=O)c1ccccc1NC(=O)CSc1nc2ccccc2nc1Cc1ccc(F)cc1 0.249%, Cc1nnc(NC(=O)CSc2nccn2Cc2ccccc2)s1 -17.2%, Cc1ccc(C(=O)Nc2cc(-c3cn4cccnc4n3)ccc2C)cc1C 0.679%, CSCCC(NS(=O)(=O)c1ccc2c(c1)oc(=O)n2C)C(=O)NCc1ccc(Cl)cc1 (stereo not given) -1.65%, O=C(Nc1cc(-c2cccc(Cl)c2)nn1-c1ccccc1)c1ccccc1F 4%, CCc1ccccc1S(=O)(=O)Cc1ccc(C(=O)NCCc2ccc(Cl)cc2)o1 -43%, CCS(=O)(=O)c1ncc(N(Cc2ccccc2)Cc2ccco2)c(C(=O)Nc2ccccc2C)n1 -20.5%, CC(C)CCNc1nc(Nc2ccccc2)c2cnn(C)c2n1 -5.33%, NCC[C@H](O)C(=O)N[C@@H]1C[C@H](N)[C@@H](O[C@H]2O[C@H](CN)[C@@H](O)[C@H](O)[C@@H]2O)[C@H](O)[C@@H]1O[C@H]1O[C@H](CO)[C@@H](O)[C@H](N)[C@@H]1O -2.89% [at 0.74 µM, percent change from vehicle, -100% = no light], O=C(Cc1ccc(Cl)cc1)NCCc1csc2nc(-c3ccccc3F)nn12 -14.5%, CCC(C)(C)NC(=O)C(NS(=O)(=O)c1cccs1)c1ccccc1 (stereo not given) -17.7%, Cc1cc(F)ccc1Nc1nc2ccc(Cl)cc2n2cnnc12 -4.06%, CCOC(=O)c1ccc(-n2c(CCC(=O)O)ccc2-c2ccccc2)cc1O -3.74%, O=C(O)Cc1ccc2c(c1)C(=O)c1ccccc1CO2 25.4%, CCc1ccc(-c2nc3cc(NC(=O)c4ccc(C)c(C)c4)ccc3o2)cc1 -6.5%, Cc1c(NC(=O)c2cccs2)cccc1-c1nc2cc(Cl)ccc2o1 -9.78%, COc1ccc(S(=O)(=O)n2nc(-c3ccco3)nc2NCc2ccc(C(C)C)cc2)cc1 -3.26%, CCOc1ccc(NC(=O)c2nc(S(=O)(=O)Cc3ccccc3F)ncc2Cl)cc1 -96.1%, Clc1cccc(-c2nnnn2Cc2cccnc2)c1Cl -10.5%, O=C(NCCCN1CCN(c2ccccc2F)CC1)c1ccc2nc(CCc3ccccc3)oc2c1 -19.7%, CCOc1ccc(C(=O)Nc2ccc(OCc3cc(=O)n4cccc(C)c4n3)cc2)cc1 -14.8%, CCc1nnc2c3ccccc3nc(Nc3cc(C)cc(C)c3)n12 -19.4%, COc1ccc(S(=O)(=O)NCc2cccn2Cc2cc(C)ccc2C)cc1OC -11.9%, Cc1nc2ccccc2n1Cc1ccc(Cl)cc1 -76.9%, CC(=O)NCCNC(=O)CCCc1nnc2n(CC(C)C)c(=O)c3sccc3n12 -16.4%, COc1ccc(-c2cc(-c3nc(-c4cc(OC)c(OC)c(OC)c4)no3)[nH]n2)c(OC)c1 -21.5%, COc1cccc(NC(=O)Cn2c(=O)n(Cc3ccc(F)cc3)c(=O)c3sc4ccccc4c32)c1 -15.7%, OCCCNc1cc(-c2ccnc(Nc3cccc(Cl)c3)n2)ccn1 -17.7%, COc1ccc(CNC(=O)CCc2c(C)nc3cc(-c4ccc(OC)cc4OC)nn3c2C)cc1 -36.8%, Cc1cccc(NC(=O)Cn2c(=O)n(CC3CCC(C(=O)NCCc4ccccc4)CC3)c(=O)c3ccccc32)c1 (stereo not given) -12.9%, Fc1ccc(Nc2nc(-c3cccc(Cl)c3)c3c(n2)-c2ccccc2OC3)c(F)c1 -18.4%, Fc1ccc(-c2cc(-c3ccc(F)cc3)c3c(n2)-c2cc(F)ccc2OC3)cc1 -16.9%, CC(C)=CCNc1ncnc2c1ncn2[C@@H]1O[C@H](CO)[C@@H](O)[C@H]1O -43.6%, CCOc1ccc2nc(N3CCCC(C(=O)Nc4ccccc4CC)C3)sc2c1 (stereo not given) 27.1%, CCc1ccc(NC(=O)CSc2nc(-c3ccc(C)cc3)nc3c2Cc2c(CO)cnc(C)c2O3)cc1 -18.2%, CCOC(=O)c1cc(-c2ccc(F)cc2)n(CCC(=O)NC2CCC(C)CC2)c1C (stereo not given) -34.2%, COc1cccc(-c2ccc(NC(=O)C3=C(C(=O)O)CCC3)c(F)c2)c1 14.3%, CCc1ccc(NC(=O)c2cc(S(=O)(=O)NC3CCCCCC3)ccc2F)cc1 -47.1%, Cc1nn(-c2ccccc2)c2c1N(CCCC(=O)NC(C)c1ccccc1)C(=O)CS2 (stereo not given) -17.2%, Cc1nn(-c2ccccc2)c2c1N(CC(=O)N1CCN(c3ccc(Cl)cc3)CC1)C(=O)CS2 -14.4%, CCc1ccc(CNC(=O)CCn2nc(C)c3c(C)n(-c4ccccc4)nc3c2=O)cc1 3.93%, Cc1ccc(S(=O)(=O)c2cn(Cc3ccccc3)c3cc(N4CCOCC4)c(F)cc3c2=O)cc1 -25.1%, COc1cc(NC(=O)c2noc3c2CC(C)CC3)c(OC)cc1Cl (stereo not given) -9.36%, O=c1[nH]c(=O)n([C@H]2C[C@@H](O)[C@@H](CO)O2)cc1I -10%, CC1CCC(NC(=O)c2ccc(CSc3nc4ccncc4n3Cc3ccc(F)cc3)cc2)CC1 (stereo not given) -15.7%, COc1ccc(-n2c(SCCC(C)C)nc3sc4c(c3c2=O)CC(C(C)C)OC4)cc1 (stereo not given) -1.76%, Cc1nn(CCCC(=O)Nc2ccccc2C(F)(F)F)c(=O)c2nn(-c3ccccc3)c(C)c12 -4.92%, Cc1nn2c(-c3ccccc3)cc(-c3ccccc3)nc2c1-c1ccc(Cl)cc1 -0.839%, Cc1cc(C)n2nc(CNC(=O)c3ccc(Cl)cc3)nc2n1 -3.76%, O=C(Nc1ccccc1)c1cccc(N2CCCS2(=O)=O)c1 7.49%, COc1ccc(C(CC(=O)Nc2ncccc2C)N2Cc3ccccc3C2=O)cc1OC (stereo not given) -19.3%, COc1ccc(NC(=O)[C@H](Cc2ccccc2)N2Cc3ccccc3C2=O)cc1OC -25.1%, COc1cccc(NC(=O)Cn2c(=O)n(Cc3ccc4c(c3)OCO4)c(=O)c3oc4ccccc4c32)c1 -11.6%, Cc1ccc(-n2ncc(C(=O)NCCN3CCN(C)CC3)c2C2CCN(C(=O)OC(C)(C)C)CC2)cc1C -5.74%, CC(=O)c1cccc(NS(=O)(=O)c2c(C(=O)N3CCCCCC3)c(C)n(C)c2C)c1 -7.73%, COc1ccc2c(c1)c(N1CCCC1=O)c(C(=O)Nc1ccc(OC)c(Cl)c1)n2C -35.3%, CCOc1ccc(CNC(=O)Cn2c(=O)c3cccn3c3cccnc32)cc1 -8.04%, COc1ccccc1Nc1nc(C)nc(N)c1S(=O)(=O)c1ccccc1 -8.63%, CN(C)CCN(Cc1cccs1)c1ccccn1 -4.94%, Cc1nc2c3cccnc3nn2c(C)c1CCC(=O)NCc1ccccc1 -20.2%, Cc1ccc(C)c(NC(=O)c2cc(S(=O)(=O)NCc3ccccc3)ccc2F)c1 -15.7%, CCN(CC)S(=O)(=O)c1ccc2c(c1)nc(CN(C)C(=O)Nc1ccc(C)c(Cl)c1)n2C -23%, COc1ccc(Nc2ncc(C(=O)Nc3cccc(Cl)c3)c3ccccc23)cc1 -10.9%, CCc1ccc(NC(=O)C(=O)NCC(c2ccc3c(c2)OCO3)N2CCN(C)CC2)cc1 (stereo not given) -16.5%, Cc1ccc(OCC(=O)NCC2(N3CCN(C)CC3)CCCCC2)cc1 -11.6%, CC(C)CCNC(=O)c1cnc2sc(N3CCCCCC3)nn2c1=O -15.9%, COc1ccc(CNC(=O)c2ccc(Cn3c(=O)c4cccn4c4cccnc43)cc2)c(OC)c1 -15.3%, Cc1ccc(O)c(NC(=O)c2cc(-c3ccc(F)cc3)no2)c1 25%, COc1ccc(-n2nc3c(N4CCC(C(=O)N5CCC(C)CC5)CC4)nnc(C)c3c2C)cc1 -14.8%, CC(=O)NCC(=O)N1[C@H]2CC[C@H]1c1cc(Nc3ncc(C(F)(F)F)c(NC4CCC4)n3)ccc12 -38.8%, COc1cccc(-c2nc(CS(=O)(=O)CC(=O)N3CCN(c4ccccc4)CC3)c(C)o2)c1 -26.1%, Cc1ccc(Cl)cc1N1CCN(C(=O)c2ccc3c(Cl)c4c(nc3c2)CCCC4)CC1 -17.5%, O=C(Cn1c(=O)ccc2cc(S(=O)(=O)N3CCCC3)ccc21)Nc1ccccc1 -17.1%, CCN1CCN(CCCNC(=O)Cn2c(-c3cccs3)cc3cc(Cl)ccc32)CC1 -25.1%, COc1ccc(-c2nc(CNC(=O)Nc3ccccc3)c(C)o2)c(OC)c1 -2.96%, CCn1ccc2c(OCC(=O)Nc3ccc(OC)cc3OC)cccc2c1=O -35.7%, O=c1ccc(-c2ccccc2)nn1Cc1c(F)cccc1Cl -19.3%, CCn1cc(C(=O)NCCC(C)C)c(=O)c2cc(S(=O)(=O)N(C)C3CCCCC3)ccc21 -4.54%, CCC(=O)N1c2ccccc2CC1C(=O)NCCCN1CCN(c2ccc(OC)cc2)CC1 (stereo not given) -3.4%, CC1CCCCN1c1cc2c(cc1F)c(=O)c(S(=O)(=O)c1ccccc1)cn2Cc1ccccc1 (stereo not given) -14%, O=S(=O)(Nc1ccc(O)c(Sc2nc3ccccc3s2)c1)c1cc(Cl)ccc1Cl -20%, O=C(Cn1c(-c2cccs2)cc2cc(F)ccc21)NCCc1ccc(Cl)cc1 -22.5%, Cc1c(Cl)cccc1NC(=O)C(=O)NCCc1csc2nc(-c3ccccc3F)nn12 -27.4%, CCCCOc1ccc(CNC(=O)c2cnc3sc(N4CCCC4)nn3c2=O)cc1 -17.9%, O=C(NCCCN1CCN(c2ccccc2)CC1)c1sc2ncccc2c1-n1cccc1 -18.2%, CCOc1ccc(CCNC(=O)c2cnc3c(-c4ccc(F)cc4)c(C)nn3c2C)cc1 -8.53%, COc1ccc(N(C(=O)c2ccccc2C)S(=O)(=O)c2ccc(Cl)cc2)cc1 -29.5%, Nc1ncc(S(=O)(=O)NCc2ccccc2)cn1 -1.62%, COc1cc(S(=O)(=O)NCCc2c(C)[nH]c3ccc(C)cc23)ccc1Br -30.9%, COc1ccc(C(=O)c2cn(Cc3ccccc3)c3ccccc3c2=O)cc1OC -19.7%, CN1C(C(=O)Nc2cccc(O)c2)=CC(c2cccs2)=NS1(=O)=O -27.9%
